Test results as given in PubChem BioAssay AID686978 (National Center for Advancing Translational Sciences (NCATS), 2013).
Values joined by “and” are separate entries in the source; they are usually repeats but may differ in a detail not shown here. Identical values can stand only once. Screen size: about 420,000 compounds; about 64,000 (15%) were called active. The inconclusive results got no clear call from the source; some entries with a clear call stand among them for comparison. The call rests on the fitted dose curve; in most records, active means well fitted inhibition curve with a large enough effect; inconclusive means small, poorly fitted or top-dose-only effect; inactive means flat fitted curve, though single readings scatter. Potencies of inconclusive entries are doubtful fits and often do not repeat.

Assay: qHTS for Inhibitors of human tyrosyl-DNA phosphodiesterase 1 (TDP1): qHTS in cells in absence of CPT; further: nearly all actives have a fitted effect of over 55% in size
Conditions: DT40 Tdp1-/- hTDP1 cells, no CPT, ATP luminescence, 48 h; activity change, negative = growth inhibition: at 46.2 µM (top of the series) unless noted
In short: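 No-CPT arm: Tdp1-/-;hTDP1 DT40 cells (400/well) plus compounds, incubated ≥48 hr at 37 °C. Readout CellTiter-Glo luminescence.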
On the % scale 0 is the no-effect control and ±100 the full control effect; potency means the concentration at half of the fitted maximal effect; tags describe the fitted curve by direction and shape.

Row | SMILES | Potency | activity change, negative = growth inhibition
1 | COC(=O)c1cc2c([nH]c1=O)CC(c1ccccc1)CC2=O (centres undefined) | inconclusive: 17.8 µM [inhibitor, single point] | –
2 | O=C(Cc1ccc(Cl)cc1Cl)Nc1ccncc1Cl | active: 1.84 µM | –
3 | CCC(C)N(C(=O)COC(=O)c1cc([N+](=O)[O-])ccc1N)C1CCS(=O)(=O)C1 (centres undefined) | – | inactive: 6.19%
4 | CC(=O)Nc1ccc(-c2nnc(SCC(=O)c3ccc4c(c3)Cc3ccccc3-4)n2C)cc1 | active: 11.6 µM | –
5 | O=C(CSc1nnnn1C1CCCCC1)Nc1nc2c(s1)CCCC2 | active: 20.6 µM | –
6 | Cc1ccccc1N=C1SCCN1C(=O)CN1C(=O)NC2(CCCC2)C1=O | inconclusive: 29.1 µM [inhibitor, single point] | –
7 | Cc1cc(C)cc(NC(=O)CSc2nc3ccccc3nc2N2CCCC2)c1 | inconclusive: 18.4 µM [inhibitor, single point] | –
8 | Cc1ccc(N(Cc2ccccc2F)S(C)(=O)=O)cc1C | inconclusive: 35.5 µM [inhibitor, single point] | –
9 | COc1ccc(OC)c(NC(=O)CSC2=NN3CCCC(=O)N=C3S2)c1 | inconclusive: 20.6 µM [inhibitor, partial curve] | –
10 | O=C(Nc1ncn[nH]1)c1ccc(Cl)c(Cl)c1 | – | inactive: -10.2%
11 | CCCn1cc(CN2CCC(C(=O)Nc3cccc(-c4cscn4)c3)CC2)c(C)n1 | inconclusive: 25.9 µM [inhibitor, single point] | –
12 | CC(NC(=O)C(=O)N1CCOCC1)C(c1cccs1)N1CCN(c2ccccc2)CC1 (centres undefined) | – | inactive: 4.64%
13 | CCCCn1c(N2CCC(Cc3ccccc3)CC2)nc2c1c(=O)[nH]c(=O)n2C | active: 20.6 µM | –
14 | O=C(COc1ccc(Cl)cc1)N(Cc1ccc(F)cc1)C1CCS(=O)(=O)C1 (centres undefined) | – | inactive: -21.3%
15 | Cc1ccc(S(=O)(=O)/N=C(/c2ccccc2)N(C)c2ccc(O)cc2)cc1 | inconclusive: 16.4 µM [inhibitor, single point] | –
16 | CCOC(=O)c1c(NC(C)=O)sc2c(OC(C)=O)cccc12 | inconclusive: 14.6 µM [inhibitor, single point] | –
17 | CC(C)c1cc(-c2nc(-c3ccc(Br)cc3)no2)n[nH]1 | inconclusive: 18.4 µM [inhibitor, single point] | –
18 | C=C1C(=O)OC2CC1C(O)CC(C)=CCCC(C)=CC(O)CC2C (centres undefined) | active: 3.26 µM | –
19 | O=C(COc1ccc(-c2nnco2)cc1)NC1CCCc2ccccc21 (centres undefined) | inconclusive: 20.6 µM [inhibitor, single point] | –
20 | CCCOC(=O)c1cc2ccccc2oc1=O | – | inactive: -15.6%
21 | CCc1ccc(CN(C)C(=O)CCc2nnc(-c3ccc(-c4ccccc4)cc3)o2)nc1 | active: 11.6 µM | –
22 | Cc1ccn2c(NCc3ccccc3)c(-c3cccs3)nc2c1 | active: 23.1 µM | –
23 | Cc1cc2c(n1-c1ccc(C(=O)NCCc3ccccc3)cc1)CCC(C)C2 (centres undefined) | active: 20.6 µM | –
24 | COc1ccc(CCN(CC(=O)NC2CCCC2)C(=O)Cn2nnc(-c3ccc(C)o3)n2)cc1OC | – | inactive: -0.946%
25 | O=C(c1ccc(Cl)cc1)N1N=C(c2ccccn2)CC1(O)C(F)(F)F (centres undefined) | active: 14.6 µM | –

Row | SMILES | Potency | activity change, negative = growth inhibition
26 | CCCN(Cc1cccs1)C(=O)Nc1ccc(Br)cc1F | – | inactive: -6.44%
27 | CCC(C(=O)N1CCN(S(=O)(=O)c2ccc(F)cc2)CC1)c1ccccc1 (centres undefined) | inconclusive: 20.6 µM [inhibitor, single point] | –
28 | N#Cc1c(-c2ccc(Cl)cc2Cl)nc2n(c1=O)CCS2 | – | inactive: -9.89%
29 | COc1ccc(CNc2ncncc2-c2ccc3c(c2)OCO3)c(OC)c1 | inconclusive: 29.1 µM [inhibitor, single point] | –
30 | Cc1cccc2sc(NNC(=O)c3ccc(S(=O)(=O)N4CCc5ccccc5C4)cc3)nc12 | active: 2.31 µM | –
31 | O=C(CN1C(=O)NC2(CCc3ccccc32)C1=O)c1ccc(Br)cc1 (centres undefined) | – | inactive: -26.1%
32 | COc1ccc(-c2cc(C(=O)c3c(N)n(C)c(=O)n(C)c3=O)c3ccccc3n2)cc1 | inconclusive: 23.1 µM [inhibitor, single point] | –
33 | Cc1ccc(S(=O)(=O)NCCCN(C)C)cc1 | – | inactive: -27.8%
34 | CSc1ncccc1C(=O)OCC(=O)N(C)Cc1ccc(C)cc1 | inconclusive: 29.1 µM [inhibitor, single point] | –
35 | CCSc1cc(N2CC(C)OC(C)C2)nc(-c2ccccc2Cl)n1 (centres undefined) | inconclusive: 29.1 µM [inhibitor, single point] | –
36 | COc1cccc(Cn2c(=O)c(CCc3ccccc3)nc3cnc(N4CCNCC4)nc32)c1 | inconclusive: 29.1 µM [inhibitor, single point] | –
37 | COc1cc(OC)c(C(=O)OCC(=O)Nc2cc(C)on2)cc1OC | inconclusive: 18.4 µM [inhibitor, single point] | –
38 | CC(=O)Nc1ccc(NC(=O)COC(=O)c2c(-c3ccccc3)noc2C)cc1 | inconclusive: 16.4 µM [inhibitor, partial curve] | –
39 | CCN1CCN(c2ncc3c(n2)CCN(Cc2ccc(OC)c(OC)c2)C3)CC1 | – | inactive: -13.7%
40 | CCn1c(SCC(=O)N/N=C/C=C/c2ccccc2[N+](=O)[O-])nnc1-c1ccccc1 | inconclusive: 20.6 µM [inhibitor, partial curve] | –
41 | C/C(N)=C(/C#N)C(=O)COC(=O)c1ccccc1C(=O)c1ccc(C)cc1 | inconclusive: 18.4 µM [inhibitor, partial curve] | –
42 | Fc1ccc(-c2nc3c4ccccc4ccn3c2Cc2cccc(Cl)c2)cc1 | active: 16.4 µM | –
43 | CC(/C=N/NC(=O)CSc1nnc(SCc2ccccc2)s1)=C\c1ccco1 | – | inactive: -1.61%
44 | Cc1ccc(-n2[nH]c(C)c(C=NC34CN5CN(CN(C5)C3)C4)c2=O)cc1C | active: 20.6 µM | –
45 | CC(=O)Nc1ccc(NC(=O)C(C)OC(=O)CC2CCCC2)cc1 (centres undefined) | – | inactive: -10.9%
46 | COc1ccc2[nH]c(=O)c(CN(C(=O)c3cccc(Cl)c3)c3cccc(C)c3)cc2c1 | active: 18.4 µM | –
47 | CC1(C)CC(=O)C2=C(C1)OC(N)=C(C#N)C2c1ccc[nH]1 (centres undefined) | inconclusive: 25.9 µM [inhibitor, partial curve] | –
48 | CCN1C(=O)c2ccccc2S(=O)c2ccc(C(=O)N3CCN(c4ccccc4OC)CC3)cc21 (centres undefined) | inconclusive: 29.1 µM [inhibitor, single point] | –
49 | COc1cc(SC)ccc1C(=O)NCCNC(=O)c1nonc1N | – | inactive: -29.4%
50 | Cc1ccccc1NC(=S)Nc1ccccn1 | inconclusive: 29.1 µM [inhibitor, single point] | –

Row | SMILES | Potency | activity change, negative = growth inhibition
51 | CC(O)CNc1cnccn1 (centres undefined) | – | inactive: -0.638%
52 | COc1ccc(-n2nnc3c(=O)n(CC(=O)OCc4ccccc4)cnc32)cc1 | inconclusive: 29.1 µM [inhibitor, single point] | –
53 | COc1cccc(CNC(=O)CCCCCn2c(=O)[nH]c3cc(OC)c(OC)cc3c2=O)c1 | inconclusive: 14.6 µM [inhibitor, partial curve] | –
54 | COc1ccc(C(=O)NC(=S)NCc2ccco2)cc1OC | inconclusive: 32.6 µM [inhibitor, single point] | –
55 | O=C(Nc1cc(=O)[nH]c2ncnn12)c1ccccc1Cl | – | inactive: -5.75%
56 | O=C(NCCNC(=O)c1ccc(Cl)cc1Cl)c1cnccn1 | – | inactive: 1.67%
57 | COc1ccccc1NC(=O)CN1CCN(CC(=O)Nc2ccc3c(c2)OCO3)CC1 | inconclusive: 18.4 µM [inhibitor, single point] | –
58 | O=C(/C=C/c1ccc(F)cc1)NC(=S)N1CCCCC1c1cccnc1 (centres undefined) | – | inactive: -15.1%
59 | CC1=CC(=NOC(=O)c2cccc([N+](=O)[O-])c2)C=C(C)C1=O | active: 11.6 µM | –
60 | CC1O[C@@H](OC2C(COC3OC(CO)C(O)[C@H](O)C3O)OC(OC3CC[C@]4(C)C(CC[C@@]5(C)[C@@H]4CC=C4[C@@H]6CC(C)(C)CC[C@]6(CO)C(O)C[C@]45C)C3(C)C)C(O)C2O)C(O)C(O)C1O (some centres undefined) | – | inactive: 6.62%
61 | CCC1(c2ccc(F)cc2)NC(=O)N(CC(=O)c2cc(C)n(C3CC3)c2C)C1=O (centres undefined) | inconclusive: 25.9 µM [inhibitor, single point] | –
62 | COc1ccc(OC)c(Nc2nc(N)c([N+](=O)[O-])c(NC3CCCCC3)n2)c1 | inconclusive: 16.4 µM [inhibitor, single point] | –
63 | COc1nsnc1NS(=O)(=O)c1ccc(NC(=S)NC(=O)c2ccncc2)cc1 | inconclusive: 25.9 µM [inhibitor, single point] | –
64 | Nc1c(C(=O)Nc2ccccc2)c2nc3ccccc3nc2n1-c1ccc(O)cc1 | active: 2.06 µM | –
65 | CN(CC(=O)Nc1ccc(F)cc1)C(=O)c1ccc(N2C(=O)CCC2=O)cc1 | – | inactive: 16.8%
66 | Cc1nnc(SCC(=O)NC2CC2)n1CC1CCCO1 (centres undefined) | – | inactive: 15%
67 | COc1cc(C(CC(=O)Nc2cc(C)ccn2)N2Cc3ccccc3C2=O)cc(OC)c1OC (centres undefined) | inactive and inconclusive: 8.2 µM [inhibitor, partial curve] | –
68 | CN(Cc1ccccc1)C(=O)c1cc(-c2cccc(Cl)c2)on1 | inconclusive: 23.1 µM [inhibitor, single point] | –
69 | Cc1ccc(S(=O)(=O)N2CCN(C(=O)COC(=O)CNC(=O)c3ccc(C(C)(C)C)cc3)CC2)c(C)c1 | – | inactive: 6.77%
70 | O=C(NCCS(=O)(=O)N1CCN(c2ccccc2)CC1)c1cccs1 | – | inactive: -10.5%
71 | CC1(C(=O)NCc2cccc3ccccc23)CCN1CCc1ccccc1 (centres undefined) | active: 18.4 µM | –
72 | CC(C)n1c2ccccc2c2nc3ccccc3nc21 | inconclusive: 18.4 µM [inhibitor, single point] | –
73 | CC(=O)OC1CCC2C3CCc4cc(O)ccc4C3CCC12C (centres undefined) | inconclusive: 29.1 µM [inhibitor, single point] | –
74 | COc1ccccc1NC(=O)CSc1oc(-c2ccccc2)nc1S(=O)(=O)c1ccccc1 | active: 16.4 µM | –
